From patent US20140221622A1

Molecular target: EGFR on U87MG.de2-7 cells (UniProt P00533)
Assay: flow cytometry on U87MG.de2-7 cells, Alexa Fluor 488 anti-human IgG Fc

B1: DB001 Fab-body (bispecific antibody, human IgG1, kappa)
light: DIQMTQSPSSMSVSVGDRVTITCHSSQDINSNIGWLQQKPGKSFKGLIYHGTNLDDGVPSRFSGSGSGTDYTLTISSLQPEDFATYYCVQYAQFPWTFGGGTKLEIKTVAAPSVFIFPPDAQVTQSPSSLSASVGDRVTITCRSSTGAVTTSNYANWVQEKPGKLFKGLIGGTNKRAPGVPSRFSGSGSGTDATLTISSLQPEDFATYFCALWYSNLWVFGGGTKVEIKRTVAAPSVFIFPPSDEQLKSGTASVVCLLNNFYPREAKVQWKVDNALQSGNSQESVTEQDSKDSTYSLSSTLTLSKADYEKHKVYACEVTHQGLSSPVTKSFNRGECGGSGG[human IgG1 Fc with changes omitted here]
heavy: QVQLQESGPGLVKPSQTLSLTCTVSGYSISSDFAWNWIRQPPGKGLEWMGYISYSGNTRYQPSLKSRITISRDTSKNQFFLKLNSVTAADTATYYCVTAGRGFPYWGQGTLVTVSSASTKGPEVQLVESGGGLVQPGGSLRLSCAASGFTFSTYAMNWVRQAPGKGLEWVGRIRSKYNNYATYYADSVKDRFTISRDDSKNTAYLQMNSLRAEDTAVYYCTRHGNFGNSYVSWFAYWGQGTLVTVSSASTKGPSVFPLAPSSKSTSGGTAALGCLVKDYFPEPVTVSWNSGALTSGVHTFPAVLQSSGLYSLSSVVTVPSSSLGTQTYICNVNHKPSNTKVDKKV[human IgG1 Fc with changes omitted here]
Question: With B1 as the binder, how does the EC50 read?
Answer: The EC50 was 15 nM.
